Experimental data reported in the supplement of paper PMC12217912.
The other results are listed elsewhere or left out. Sequences were assembled here from the parent chain. Values near 0.05 are background.

B1: TEV protease; numbered along this chain (parent)
chain: MGESLFKGPRDYNPISSSICHLTNESDGHTTSLYGIGFGPFIITNKHLFRRNNGTLVVQSLHGVFKVKDTTTLQQHLVDGRDMIIIRMPKDFPPFPQKLKFREPQREERICLVTTNFQTKSMSSMVSDTSCTFPSGDGIFWKHWIQTKDGQCGSPLVSTRDGFIVGIHSASNFTNTNNYFTSVPKNFMELLTNQEAQQWVSGWRLNADSVLWGGHKVFMVKPEEPFQPVKEATQL

Variants of: B1
Experiment: raw area under fraction-flipped curve 0-4 h after induction (AUC4h, not background-subtracted), DNA-recorder readout of cleavage of the substrate (dimensionless); higher = more cleavage of the substrate by the protease variant
Settings: temperature: 34 °C; time window: 0-4 h after rhamnose induction
Experimental: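 In vivo DNA recorder in E. coli TOP10(DE3) ΔrhaA at 34 °C. Each TEVp single-site mutant (parent TEVp 0) is paired with a single-site variant of the 7-mer TEVs (canonical ENLYFQ|S). The substrate sits between flexible linkers in a Bxb1-sfGFP-TEVs-SsrA fusion, so cleavage stabilises Bxb1 and speeds flipping of a recombination array, read by NGS. The value is the raw area under the fraction-flipped curve over 0-4 h after rhamnose induction (AUC4h), with ≥20 reads per time point. It is not background-subtracted; inactive controls average about 0.047.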
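Note: Bxb1 expression induced with 0.2% (w/v) L-rhamnose at OD600 near 0.5, cultures sampled hourly, flipped fraction per protease–substrate barcode pair counted by paired-end Illumina sequencing.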

Variant | area with substrate EALYFQS | area with substrate ECLYFQS | area with substrate EDLYFQS | area with substrate EGLYFQS | area with substrate EHLYFQS | area with substrate EILYFQS | area with substrate EKLYFQS | area with substrate ELLYFQS | area with substrate EMLYFQS | area with substrate EPLYFQS | area with substrate EQLYFQS | area with substrate ERLYFQS | area with substrate ESLYFQS | area with substrate EVLYFQS | area with substrate EWLYFQS | area with substrate EYLYFQS | area with substrate EELYFQS | area with substrate ETLYFQS | area with substrate EFLYFQS
G54H | 0.0733 | 0.0644 | 0.0767 | 0.0661 | 0.0758 | 0.0658 | 0.0747 | 0.0707 | 0.0612 | 0.102 | 0.065 | 0.0663 | 0.0755 | 0.0632 | 0.0529 | 0.0932 | – | – | –
G54L | 0.0605 | 0.0773 | 0.0707 | 0.0173 | – | 0.0597 | – | 0.0575 | 0.0614 | 0.0784 | – | 0.0642 | 0.063 | 0.0711 | 0.0627 | 0.062 | 0.077 | 0.0566 | –
G54R | 0.0629 | 0.0642 | – | – | 0.079 | 0.0643 | 0.0496 | 0.0567 | – | 0.0938 | 0.0747 | 0.0641 | 0.0721 | 0.0684 | – | 0.0786 | 0.0105 | – | 0.0636
H62D | 0.109 | 0.0949 | 0.111 | 0.0838 | 0.106 | 0.089 | 0.0931 | – | – | – | 0.117 | 0.0908 | 0.0984 | 0.0983 | 0.0609 | 0.111 | 0.0995 | 0.0978 | –
H62F | 0.122 | 0.107 | – | – | – | 0.0904 | 0.119 | 0.0913 | 0.105 | 0.1 | 0.118 | 0.102 | 0.1 | 0.0862 | 0.0959 | 0.109 | 0.118 | – | 0.0907
F49R | 0.0537 | 0.0552 | – | – | 0.0511 | 0.0605 | 0.0578 | – | 0.0459 | 0.0665 | 0.0483 | 0.058 | 0.0571 | 0.0492 | 0.0596 | 0.0579 | – | – | –
F49V | 0.091 | – | – | 0.0719 | – | 0.0535 | 0.0585 | 0.0551 | – | 0.0723 | – | – | 0.0644 | 0.0574 | 0.0775 | – | 0.0615 | 0.0545 | 0.0752
F49K | 0.0576 | 0.0893 | 0.0628 | 0.0592 | 0.0533 | – | 0.0648 | 0.144 | 0.0543 | 0.0586 | 0.0571 | 0.0609 | 0.0481 | – | 0.0505 | 0.0572 | 0.0533 | – | –
L56V | 0.0793 | – | 0.107 | 0.0832 | 0.0661 | 0.0832 | 0.0876 | 0.0838 | 0.0875 | 0.0968 | 0.0938 | 0.0769 | 0.0965 | – | 0.0718 | – | – | 0.0889 | –
L56D | 0.0427 | – | 0.0352 | 0.0495 | – | 0.0406 | 0.0729 | 0.0326 | 0.0521 | 0.0465 | 0.0341 | 0.0479 | 0.0485 | 0.0499 | 0.0505 | 0.051 | 0.0453 | 0.0436 | 0.0444
T71C | 0.0891 | 0.093 | 0.1 | – | 0.104 | 0.107 | 0.114 | – | 0.104 | 0.11 | 0.108 | – | 0.118 | – | 0.118 | 0.0919 | – | – | –
T71L | 0.125 | – | 0.115 | – | 0.11 | 0.101 | 0.0939 | – | 0.103 | – | 0.13 | 0.0897 | 0.114 | 0.005 | 0.1 | 0.117 | – | – | 0.101
T71W | 0.118 | 0.0766 | – | 0.0788 | 0.0945 | 0.078 | 0.0826 | – | – | 0.0883 | 0.126 | – | 0.0762 | 0.0867 | 0.168 | – | 0.0958 | – | –
L77S | 0.08 | 0.0807 | 0.0921 | 0.0621 | 0.0927 | 0.072 | 0.0811 | 0.062 | 0.0833 | 0.0687 | 0.0791 | 0.0785 | 0.0812 | 0.0675 | 0.073 | – | 0.0676 | – | –
V67L | 0.117 | 0.0924 | – | 0.101 | 0.0954 | – | – | 0.0897 | 0.11 | – | 0.113 | 0.106 | – | 0.0825 | – | – | – | 0.0915 | 0.0706
V57G | 0.116 | – | – | – | 0.098 | – | 0.0964 | – | – | – | – | 0.106 | 0.0539 | 0.0888 | – | – | – | – | –
L73P | 0.0778 | 0.0557 | 0.0467 | 0.0577 | 0.058 | 0.0505 | 0.0631 | – | 0.044 | 0.0494 | 0.0609 | 0.0718 | – | 0.0577 | – | 0.0554 | – | 0.0509 | 0.0663
L73Y | 0.0761 | 0.0727 | – | 0.0679 | – | 0.0779 | 0.0758 | – | 0.0849 | – | 0.0763 | 0.0818 | 0.0675 | 0.0613 | 0.0683 | 0.0716 | 0.0829 | 0.0695 | 0.0653
S60L | 0.106 | 0.0665 | 0.126 | 0.0783 | 0.0756 | 0.111 | 0.0857 | 0.0806 | 0.0849 | – | 0.111 | 0.0765 | 0.0939 | 0.0924 | 0.0833 | 0.095 | 0.115 | 0.0824 | –
G63Q | 0.137 | – | – | – | – | 0.0829 | 0.0752 | 0.0749 | 0.131 | 0.167 | 0.118 | – | 0.1 | 0.094 | 0.0956 | 0.0974 | 0.106 | – | 0.103
G63Y | 0.0821 | 0.0675 | – | – | 0.0939 | 0.0876 | – | 0.0792 | 0.0963 | 0.0817 | 0.099 | – | 0.105 | – | 0.0837 | – | – | 0.0873 | –
T72D | 0.146 | 0.0963 | 0.129 | 0.0775 | 0.0901 | 0.08 | 0.0989 | 0.0727 | 0.105 | 0.116 | 0.108 | 0.0889 | 0.0979 | 0.0941 | – | 0.0564 | – | 0.115 | 0.103
Q75C | 0.103 | 0.0905 | – | 0.0933 | – | 0.0886 | 0.0705 | 0.0876 | 0.12 | 0.144 | 0.104 | 0.0997 | 0.0965 | 0.0962 | 0.0931 | 0.0949 | – | – | –
D69L | 0.093 | 0.0857 | 0.0776 | – | 0.0851 | 0.0707 | 0.0877 | 0.069 | 0.0786 | 0.104 | 0.0561 | 0.0954 | 0.0781 | 0.0918 | 0.0751 | – | 0.0923 | – | –
R50D | 0.159 | 0.111 | – | 0.0668 | – | 0.107 | 0.101 | 0.076 | 0.129 | 0.119 | 0.114 | – | – | 0.0962 | 0.0888 | – | 0.117 | – | –
